# Some of the results follow. Single values are uncertain, as repeats are few or missing.
# Key:
# Assay in all cases: cell count relative to DMSO control; melanoma cells; higher = more viable cells
# Settings in all cases: library dose: standard library concentration; 72 h
# A101D = system: A101D
# A2058 = system: A2058
# A375 = system: A375
# 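Also: cells treated in 1,536-well plates, then fixed and DAPI-stained, with nuclei counted from automated high-throughput microscope images.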
Compound,cell count (A101D) [%],cell count (A2058) [%],cell count (A375) [%]
"CC(C)C[C@H](NC(=O)[C@H](Cc1ccccc1)NC(=O)c1cnccn1)B(O)O [Bortezomib] + CC1(C)NC(=O)N(c2ccc([N+](=O)[O-])c(C(F)(F)F)c2)C1=O [nilutamide] (first compound 0.005 µM, partner dose 5 µM)",20.1,9.77,82.3
"Cc1cc(Nc2cc(N3CCN(C)CC3)nc(/C=C/c3ccccc3)n2)n[nH]1 + CS(=O)(=O)CCNCc1ccc(-c2ccc3ncnc(Nc4ccc(OCc5cccc(F)c5)c(Cl)c4)c3c2)o1 [lapatinib] (first compound 0.2 µM, partner dose 4 µM)",61.6,79.9,144
"Cc1cc(Nc2cc(N3CCN(C)CC3)nc(/C=C/c3ccccc3)n2)n[nH]1 + C=CCn1c(=O)c2cnc(Nc3ccc(N4CCN(C)CC4)cc3)nc2n1-c1cccc(C(C)(C)O)n1 [MK1775] (first compound 0.2 µM, partner dose 0.1 µM)",55.4,80.3,50.1
"CC(C)C[C@H](NC(=O)[C@H](Cc1ccccc1)NC(=O)c1cnccn1)B(O)O [Bortezomib] + Cc1ccc(NC(=O)c2cccc(N(C)C)c2)cc1NC(=O)c1ccc(O)cc1 [ZM336372] (first compound 0.005 µM, partner dose 10 µM)",4.86,10.2,70.9
"Cc1cc(Nc2cc(N3CCN(C)CC3)nc(/C=C/c3ccccc3)n2)n[nH]1 + Nc1ccn([C@@H]2O[C@H](CO)[C@@H](O)C2(F)F)c(=O)n1 [gemcitabine] (first compound 0.2 µM, partner dose 0.002 µM)",98.3,81.9,82.4
"Cn1c(=O)n(-c2ccc(C(C)(C)C#N)cc2)c2c3cc(-c4cnc5ccccc5c4)ccc3ncc21 + Cc1ccc(NC(=O)c2cccc(N(C)C)c2)cc1NC(=O)c1ccc(O)cc1 [ZM336372] (first compound 0.02 µM, partner dose 10 µM)",84.5,66.3,95.2
"Cn1c(=O)n(-c2ccc(C(C)(C)C#N)cc2)c2c3cc(-c4cnc5ccccc5c4)ccc3ncc21 + O=C(O)c1ccc2c(c1)nc(Nc1cccc(Cl)c1)c1ccncc12 [CX4945] (first compound 0.02 µM, partner dose 2 µM)",85,64.4,82.5
"CC(C)C[C@H](NC(=O)[C@H](Cc1ccccc1)NC(=O)c1cnccn1)B(O)O [Bortezomib] + CS(=O)(=O)CCNCc1ccc(-c2ccc3ncnc(Nc4ccc(OCc5cccc(F)c5)c(Cl)c4)c3c2)o1 [lapatinib] (first compound 0.005 µM, partner dose 4 µM)",17.4,12.3,91.2
"Cc1cn(-c2cc(NC(=O)c3ccc(C)c(Nc4nccc(-c5cccnc5)n4)c3)cc(C(F)(F)F)c2)cn1 [nilotinib] + O=C(O)[C@@H]1[O][Sb](=[O])([O][Sb]2(=[O])[O][C@H]([C@H](O)CO)[C@H](O)[C@H](C(=O)O)[O]2)[O][C@H]([C@H](O)CO)[C@@H]1O [stibogluconate] (first compound 1 µM, partner dose 10 µM)",98.7,110,220
"CC(C)C[C@H](NC(=O)[C@H](Cc1ccccc1)NC(=O)c1cnccn1)B(O)O [Bortezomib] + CN(NC(=O)CC(=O)NN(C)C(=S)c1ccccc1)C(=S)c1ccccc1 [STA4783] (first compound 0.005 µM, partner dose 0.03 µM)",16.6,12,87.9
"Cc1cn(-c2cc(NC(=O)c3ccc(C)c(Nc4nccc(-c5cccnc5)n4)c3)cc(C(F)(F)F)c2)cn1 [nilotinib] + Nc1nc(F)nc2c1ncn2[C@@H]1O[C@H](CO)[C@@H](O)[C@@H]1O [fludarabine] (first compound 1 µM, partner dose 1 µM)",99.5,72.3,29.9
"CC(C)C[C@H](NC(=O)[C@H](Cc1ccccc1)NC(=O)c1cnccn1)B(O)O [Bortezomib] + C=CCn1c(=O)c2cnc(Nc3ccc(N4CCN(C)CC4)cc3)nc2n1-c1cccc(C(C)(C)O)n1 [MK1775] (first compound 0.005 µM, partner dose 0.1 µM)",25,15.1,75.3
"Cn1c(=O)n(-c2ccc(C(C)(C)C#N)cc2)c2c3cc(-c4cnc5ccccc5c4)ccc3ncc21 + CC(C)(C)c1cnc(CSc2cnc(NC(=O)C3CCNCC3)s2)o1 [SNS-032] (first compound 0.02 µM, partner dose 0.05 µM)",79.8,69.9,82
